Whole data set: some 110,000 compounds, median “z-score” near -0.1, cut for the highest 2% near 2. The list shows a part of the results. The source made the active and inactive calls.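 How the source made its calls: active means z-score in the third read window above 3 or below -3; inactive means the rest.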

The assay addresses Metabotropic glutamate receptor 8 (Rattus norvegicus) (UniProt P70579). Briefly: rat mGluR8 modulators via GIRK flux, primary screen, cell-based, thallium flux, HTS (AID 488969). The settings on record: HEK293 rat mGluR8, GIRK (G protein-gated inwardly rectifying potassium channel) thallium flux, FluoZin2; at 10 µM; stronger effect = higher value; submaximal glutamate (EC20) added with thallium.
UniProt P70579, sequence (P70579 whole entry, looked up): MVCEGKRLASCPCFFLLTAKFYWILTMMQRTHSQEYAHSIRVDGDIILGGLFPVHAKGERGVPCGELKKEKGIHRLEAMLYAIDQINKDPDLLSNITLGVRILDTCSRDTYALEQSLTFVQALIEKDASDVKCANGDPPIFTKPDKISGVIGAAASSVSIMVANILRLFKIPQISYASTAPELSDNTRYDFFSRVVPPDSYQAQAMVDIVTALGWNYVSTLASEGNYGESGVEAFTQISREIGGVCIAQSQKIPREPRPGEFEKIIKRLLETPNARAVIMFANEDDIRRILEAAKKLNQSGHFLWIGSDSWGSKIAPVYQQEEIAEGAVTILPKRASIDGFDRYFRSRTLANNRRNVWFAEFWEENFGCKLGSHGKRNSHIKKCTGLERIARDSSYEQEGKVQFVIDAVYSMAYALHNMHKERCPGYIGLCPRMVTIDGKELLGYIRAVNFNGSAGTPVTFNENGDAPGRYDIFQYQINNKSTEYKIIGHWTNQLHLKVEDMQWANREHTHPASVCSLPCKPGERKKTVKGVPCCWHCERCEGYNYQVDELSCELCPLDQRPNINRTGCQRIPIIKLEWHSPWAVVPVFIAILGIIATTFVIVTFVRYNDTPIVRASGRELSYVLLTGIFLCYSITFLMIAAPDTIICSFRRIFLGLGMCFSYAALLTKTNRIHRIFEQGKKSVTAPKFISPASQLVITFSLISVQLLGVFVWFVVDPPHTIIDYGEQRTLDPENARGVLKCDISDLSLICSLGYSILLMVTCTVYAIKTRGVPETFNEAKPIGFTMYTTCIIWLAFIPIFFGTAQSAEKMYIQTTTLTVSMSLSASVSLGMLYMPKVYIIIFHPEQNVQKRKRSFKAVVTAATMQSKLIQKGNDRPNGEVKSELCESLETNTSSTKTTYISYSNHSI
With `O=C(CSc1nnc(Cc2cccs2)n1-c1ccccc1)Nc1ccc2c(c1)OCCO2`, the z-score was -0.251.

In turn, `CC(c1ccccc1)N1C(=O)CC(Sc2ncccc2C(=O)O)C1=O` (centres undefined) showed a z-score of 0.14.

For the compound `O=C(c1ccccc1F)N1CCN(c2ccc([N+](=O)[O-])c3ncccc23)CC1`, the z-score is -0.43.

For `COC(=O)c1ccccc1NC(=S)NC(=O)c1ccccc1C`, the z-score was determined as 1.1.

For `CCOC(=O)C1=C(c2ccccc2)N=C2SCC(=O)N2C1c1ccc(OCC)c(OCC)c1` (centres undefined), the z-score is -0.469.

Turning to `CC1CC(C)CN(CCCn2c(=S)[nH]c3ccccc3c2=O)C1` (centres undefined), the z-score is active: 14.4.

Turning to `COc1ccc(CSCC(=O)N/N=C/c2ccc(OCC(=O)NCc3ccco3)cc2)cc1`, the z-score was -0.405.

`COc1ccc(/C=C(\C#N)C(=O)Nc2cccnc2)cc1`: the z-score was -0.0907.

For the compound `O=C(CSc1nnc(-c2ccc(Br)cc2)n1C1CCCCC1)N1CCCC1`, the z-score was -0.489.

The compound `CCOc1ccc(N2Nc3n[nH]c(N)c3N2)cc1` returned a z-score of -0.00338.

Compound `Cc1ccc(-c2nnn(CC(=O)N(CC(=O)NCC3CCCO3)c3ccccc3)n2)o1` (centres undefined) showed a z-score of -0.674.

In the case of `Cc1ccc(NC(=S)NCc2cccs2)cc1`, the z-score is -0.104.

The compound `CCOC(=O)c1ccc(N2C(=O)CC(N3CCC(C(=O)OCC)CC3)C2=O)cc1` (centres undefined) came in with a z-score of -0.672.

`COc1ccc(-n2cnc3cc(NC(=O)c4ccco4)ccc32)cc1` yielded a z-score of -1.7.

Turning to `O=C(c1ccc2c(=O)n(C3CCCC3)c(=S)[nH]c2c1)N1CCc2ccccc21`, the z-score was active: 9.93.

Regarding `Cc1ccnc(Nc2nc(-c3c(C)nc4sccn34)cs2)c1`, the z-score was -0.978.

Turning to `COc1cccc(CNS(=O)(=O)c2cccc(S(=O)(=O)N3CCOCC3)c2)c1`, the z-score was found to be 0.606.

`O=C(OCc1ccccc1)c1cccc(-c2nnn(Cc3ccccc3)n2)c1` returned a z-score of 0.105.

`Cc1nc2oc3ccccc3c(=O)c2c(=O)n1Cc1ccccc1` yielded a z-score of 1.14.

`COCCNC(=O)C(c1ccc(C)o1)N(Cc1ccccc1)C(=O)Cn1nnc2ccccc21` (centres undefined) returned a z-score of 0.875.

Regarding `CN1CC(=O)N(C)c2nc(Br)n(C)c2C1=O`, the z-score is -0.15.

Compound `CC1CCCN(Cc2nc3c(c(=O)n(C)c(=O)n3C)n2CCc2ccccc2)C1` (centres undefined) gave a z-score of -1.05.

The compound `CCCn1c(SCC(=O)NCc2ccco2)nnc1C(C)C` showed a z-score of -0.113.

Regarding `CCN(C(=O)CSc1nnnn1-c1ccccc1)c1c(N)n(Cc2ccccc2)c(=O)[nH]c1=O`, the z-score is -0.257.

For the compound `O=C(CSc1nnnn1-c1ccccc1)NC1CCCc2ccccc21` (centres undefined), the z-score is -0.442.

Turning to `CC1CCN(C(=O)c2scc3c2OCCO3)CC1`, the z-score was -0.162.

For the compound `COc1ccccc1-c1c(C(F)(F)F)oc2cc(OC(=O)c3cccc([N+](=O)[O-])c3C)ccc2c1=O`, the z-score worked out at 0.22.

For the compound `CCOC(=O)c1[nH]c2ccccc2c1NC(=O)CC(C)(C)C`, the z-score was found to be 0.0735.

Regarding `Fc1ccc(-c2ccc(/C=N\n3cnnc3)o2)cc1Cl`, the z-score is 0.0159.

With `Cc1ccccc1OCC(=O)Nc1cccc(N(C)S(C)(=O)=O)c1`, the z-score came out at 0.502.

`CCOc1ccc2nc(NC(=S)NCc3ccccc3)sc2c1`: the z-score is 1.45.

In turn, `O=C(CN(C(=O)CSc1nc2ccccc2o1)c1ccccc1)NC1CCCCC1` came in with a z-score of -0.215.

Compound `CCOc1ccc(NC(=O)CCC(=O)O)cc1` yielded a z-score of 0.636.

For `CCCn1c(SCC(=O)Nc2sc(C)c(C)c2C#N)nnc1C(C)C`, the z-score is -0.268.

Compound `Cc1cc(NC(=O)c2ccccc2)ncc1NC(=O)c1ccco1` registered a z-score of 0.325.

`Brc1ccccc1/C=N/Nc1ccc2ccccc2n1` showed a z-score of -0.236.

Turning to `COc1ccc(N(CC(=O)NCc2ccco2)S(C)(=O)=O)cc1OC`, the z-score was -0.139.

The compound `COc1ccc(C2C(C(=O)NC(C)C)c3ccccc3C(=O)N2C)cc1OC` (centres undefined) came in with a z-score of 0.0574.

In turn, `COc1cc(NC(=O)CCc2ccccc2)nc(OC)n1` registered a z-score of -0.243.

`COc1ccc(S(=O)(=O)N2CCN(CC(=O)Nc3cc(C(F)(F)F)ccc3Cl)CC2)cc1` yielded a z-score of -0.058.

`Cc1ccc(C2(c3ccc(C)cc3)CC2C(=O)Nc2ccc([N+](=O)[O-])cc2O)cc1` (centres undefined) came in with a z-score of -0.0102.

In turn, `Cc1cc(-c2ccccc2)nc(Oc2ccc(C(C)(C)C)cc2)c1S(C)(=O)=O` registered a z-score of 0.179.

The compound `O=[N+]([O-])c1cccc(/C=N/n2c(-c3cccnc3)n[nH]c2=S)c1` registered a z-score of -0.909.

Turning to `CCOC(=O)c1nnc(-c2ccccc2)nc1NCc1ccc(Cl)cc1`, the z-score is -0.291.

`COc1ccc(NC(=O)CN2CCCCC2)c([N+](=O)[O-])c1`: the z-score was -0.149.

For `COc1ccc(OC)c(NC(=O)c2c(NC(=O)CNCc3ccco3)sc3c2CCC3)c1`, the z-score was -0.00757.

The compound `CCOc1ccc2nc(NCCNC(=O)Nc3ccccc3)c(C#N)cc2c1` displayed a z-score of 0.399.

`CCn1c(SCC(=O)N/N=C/C=C/c2ccccc2[N+](=O)[O-])nnc1-c1ccc(Cl)cc1` came in with a z-score of 0.0288.

`COc1ccc(-c2cc(=NC(CC(C)C)C(=O)O)c3cc(C)ccc3o2)cc1` (centres undefined): the z-score was -0.937.

With `Cc1noc(C)c1S(=O)(=O)N(CCc1ccccc1)Cc1ccccc1`, the z-score stood at 0.0661.

Turning to `O=C(CSc1nnc(-c2c[nH]c3ccccc23)o1)N1c2ccccc2CCc2ccccc21`, the z-score was -0.0356.

In turn, `CNC(=O)COC(=O)c1ccccc1Oc1ccccc1` displayed a z-score of -0.0504.

The compound `O=C(Cc1ccccc1)N1CCN(C(=O)c2ccco2)CC1` gave a z-score of -0.0691.

In turn, `CCN(CC)c1ccc2c(c1)oc(=O)c1c(Cl)cc(=O)oc12` returned a z-score of -1.28.

Turning to `Cc1ccc(NC(=O)c2c(C)nn(-c3ccccc3)c2Cl)c(C)c1`, the z-score is -0.346.

`CSc1nc(Sc2ccc(Cl)cc2)c2ccccc2n1` yielded a z-score of 0.0499.

As for `COc1ccc(N(C)C(=O)c2cnc(N3CCN(c4ncccn4)CC3)c3ccccc23)cc1`, the z-score was -0.865.

Compound `CCc1nnc(NC(=O)c2cccc(OC)c2)s1` showed a z-score of 0.0121.

`CC(=O)C1=C(C)NC(=O)NC1c1ccccc1` (centres undefined) registered a z-score of 0.833.

In the case of `Oc1csc(Cc2nc(-c3ccc4ccccc4c3)cs2)n1`, the z-score was -0.78.

`Cc1ccc(-c2cc(-c3nnc(SCC(=O)N(C)CCC#N)n3N)c3ccccc3n2)cc1` returned a z-score of 0.306.

`O=C(CCn1c2c(c3ccccc31)CCCC2)NNC(=O)c1cccc([N+](=O)[O-])c1`: the z-score is -0.0963.

With `COc1ccc(N2CCN(C(=O)c3ccncc3)CC2)cc1`, the z-score came out at 0.222.

On to `COC(=O)c1ccc(CSc2ccccc2C)o1`, for which the z-score was -0.171.

`Cc1nc(NC(=O)/C=C/c2ccc(Cl)cc2Cl)sc1C(=O)N(C)C` yielded a z-score of -0.0845.

In the case of `CC1(C)CC(=O)C=C(OC(=O)c2ccc(Cl)cc2)C1`, the z-score is -0.505.

In the case of `O=C(CSc1ncn[nH]1)N1N=C2/C(=C/c3ccco3)CCCC2C1c1ccco1` (centres undefined), the z-score was -0.93.

`C=C(C)Cn1c(Sc2nc3ccccc3[nH]2)nc2c1c(=O)[nH]c(=O)n2C` showed a z-score of 1.1.

On to `COc1ccccc1S(=O)Cc1ccc(C(=O)O)o1` (centres undefined), for which the z-score was -0.0279.

(Values after PubChem BioAssay AID488969 (Vanderbilt High Throughput Screening Facility, 2010).)
